# Out of some 310,000 compounds screened, about 2,200 (0.71%) showed an effect of 50% or more. The effect is printed as a negative number. Some of the results follow.
# Molecular target: human ether-à-go-go-related gene (hERG) potassium channel (human, UniProt Q12809)
# Assay: primary screen, population patch clamp on CHO cells stably expressing hERG
# Chain of human ether-à-go-go-related gene (hERG) potassium channel (Q12809 whole entry, looked up): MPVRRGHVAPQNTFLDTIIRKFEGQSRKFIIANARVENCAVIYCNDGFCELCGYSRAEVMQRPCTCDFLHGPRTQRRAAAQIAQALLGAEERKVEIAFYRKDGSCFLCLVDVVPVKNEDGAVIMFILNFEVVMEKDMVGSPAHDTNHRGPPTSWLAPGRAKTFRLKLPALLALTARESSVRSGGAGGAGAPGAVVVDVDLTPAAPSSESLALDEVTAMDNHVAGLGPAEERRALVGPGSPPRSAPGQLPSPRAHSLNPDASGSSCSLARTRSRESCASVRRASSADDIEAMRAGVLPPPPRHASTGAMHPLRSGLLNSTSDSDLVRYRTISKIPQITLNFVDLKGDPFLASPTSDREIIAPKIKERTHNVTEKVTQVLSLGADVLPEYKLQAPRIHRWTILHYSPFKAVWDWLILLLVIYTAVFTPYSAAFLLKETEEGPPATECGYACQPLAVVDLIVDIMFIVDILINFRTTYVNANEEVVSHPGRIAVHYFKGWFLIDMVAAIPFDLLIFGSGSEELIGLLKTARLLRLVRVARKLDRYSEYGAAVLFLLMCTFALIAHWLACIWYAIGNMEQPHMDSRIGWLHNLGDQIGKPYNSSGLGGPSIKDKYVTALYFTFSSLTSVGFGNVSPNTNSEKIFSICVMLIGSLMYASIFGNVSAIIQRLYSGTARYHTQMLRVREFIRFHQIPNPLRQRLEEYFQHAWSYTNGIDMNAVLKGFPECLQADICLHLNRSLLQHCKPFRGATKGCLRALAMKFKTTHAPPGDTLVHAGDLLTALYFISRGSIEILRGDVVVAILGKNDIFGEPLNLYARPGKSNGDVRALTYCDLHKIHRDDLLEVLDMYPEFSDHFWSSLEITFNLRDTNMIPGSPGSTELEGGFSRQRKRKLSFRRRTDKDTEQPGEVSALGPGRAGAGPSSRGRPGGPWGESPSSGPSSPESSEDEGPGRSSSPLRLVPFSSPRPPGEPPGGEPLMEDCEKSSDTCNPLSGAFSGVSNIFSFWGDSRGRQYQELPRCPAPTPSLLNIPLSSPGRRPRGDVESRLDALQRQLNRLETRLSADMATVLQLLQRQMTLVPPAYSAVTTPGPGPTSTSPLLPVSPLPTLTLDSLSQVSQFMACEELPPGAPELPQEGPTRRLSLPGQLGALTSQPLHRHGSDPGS
row,Compound,"hERG current change (%, negative = inhibition) at 1uM [%]"
1,CCOc1ccc(C(=O)C(C)=O)c(OCC)c1,14.1
2,CC(C)c1nc(SCc2ccccn2)c2c(=O)n(C)c(=O)n(C)c2n1,8.48
3,COc1ccc2c(c1OC)C(=O)N1C2SC(C)(C)[C@H]1C(=O)NCCCOC(C)C (stereo partly drawn),17.1
4,CS(=O)(=O)Nc1ccc(Cc2ccc(NS(C)(=O)=O)cc2)cc1,-1.62
5,O=C(O)c1cc(S(=O)(=O)Nc2ccc(OCc3ccccc3)cc2)ccc1Br,13.2
6,COc1cc2c(cc1OC)CC1(CCCCC1)N=C2.Cl,4.59
7,COCCn1c(SCC(=O)N(C(C)C)C(C)C)nnc1-c1cc2ccccc2cc1O,-1.79
8,CC1CCN(S(=O)(=O)c2ccc3c(c2)c(=O)c(C(=O)NCc2cccs2)cn3C)CC1,6.3
9,Cc1ccccc1C(=O)NC(=S)N(C)CCc1ccccn1,9.76
10,O=C(NCCCN1CCCC1=O)Nc1ccc(Cl)cc1Cl,1.13
11,Cc1ccc2c(CSc3nncn3C)cc(=O)oc2c1C,15.4
12,COc1ccc(-n2nc3c(c2NC(=O)COc2ccccc2)CS(=O)(=O)C3)cc1,12.6
13,CC1(C)CC(=O)C(C=NCCN2CCN(C(=O)c3ccccc3)CC2)=C(O)C1,17.3
14,COCCCNC(=O)Cn1nc(-c2ccccc2OC)ccc1=O,11.5
15,Cc1cc(Cn2nnc3ccccc32)c(O)c(C(C)(C)C)c1,23.6
16,C#CCOCCOCCOCCNc1nc(N2CCN(C(=O)Cn3cc(CC(C)O)nn3)CC2)nc(N2CCN(C(=O)[C@H](CCCC[NH3+])n3cc(CCC(=O)O)nn3)CC2)n1.[Cl-] (stereo partly drawn),10.6
17,O=S(=O)(c1ccc(Cl)cc1)N1CCCN(c2ccc(C(F)(F)F)cn2)CC1,4.45
18,CCOc1ccc2[nH]c(=O)c(CN(Cc3ccccc3)C(=O)N3CCCC3)cc2c1,18.9
19,CN(C)c1ccc(C(=O)Nc2ccc(CN3CCS(=O)(=O)CC3)cc2)cc1,12

row,Compound,"hERG current change (%, negative = inhibition) at 1uM [%]"
1,COCCCN(C(=O)c1ccccc1)c1nc(-c2ccc(OC)cc2)cs1,14.5
2,O=C(Cn1nc(Cl)nc1Cl)c1ccc([N+](=O)[O-])cc1,10.2
3,O=C(Nc1nc2ccccc2[nH]1)c1ccccc1F,-5.91
4,Oc1c(N=NC(=S)Nc2ccccc2F)c2ccccc2n1Cc1cccc(Cl)c1,10.6
5,CS(=O)(=O)N1CCN=C1SCc1ccccc1,14.4
6,Cc1cc(C(=O)COC(=O)CNC(=O)c2ccc(Cl)c(Cl)c2)c(C)n1Cc1ccco1,16.4
7,CC(=O)Cn1ncc(N2CCOCC2)cc1=O,9.01
8,Cc1ccc(NC(=S)NNC(=O)CSc2nnc(-c3ccc(Cl)cc3)n2C2CCCCC2)cc1,10.3
9,CN(CCOc1ccccc1)CC(=O)Nc1cccc(C#N)c1,10
10,CCC(=O)NC(=S)Nc1ccc(-c2nc3ccc(C)cc3s2)cc1,1.81
11,COc1cccc(C(=O)NCCS(=O)(=O)NCc2cccs2)c1,7.77
12,COC(=O)c1[nH]c2cc(OC)ccc2c1NC(=O)c1nonc1C,11.7
13,COc1ccc(-c2cc(C(=O)N3CCN(c4ccccn4)CC3)c3ccccc3n2)cc1,-3.67
14,CC(=O)Oc1ccc(-c2cccc(C(=O)NCC(=O)O)c2)cc1,16.4
15,COC(=O)C1=C(c2cccc(C#N)c2)C[C@@H]2CC[C@H]1N2C(=O)NCCCOC(C)C,9.53
16,Cc1ccc(NC(=O)NCCCCc2ccccc2)cc1,14.4
17,CCOC(=O)CNC(=O)COc1ccc(Cl)cc1Br,3.34
18,O=C(CN(Cc1ccc(Cl)cc1)C(=O)CNS(=O)(=O)c1ccccc1)NCC1CCCO1 (stereo not drawn),18.5
19,O=C(O)COc1ccc(/C=N/NC(=O)C2CCCN2S(=O)(=O)c2ccc(Cl)cc2)cc1 (stereo not drawn),17.1

row,Compound,"hERG current change (%, negative = inhibition) at 1uM [%]"
1,Cc1cnc(NC(=O)CSc2nnc(COc3c(C)cccc3C)o2)s1,11.6
2,Cc1ccc(OCCCCn2cnc3ccccc32)cc1.Cl,5.42
3,COc1ccc(NC(=O)/C(C#N)=C\c2ccc(Br)o2)cc1,5.71
4,CC(=O)Oc1ccc2c(=O)c(-c3ccccc3)c(C)oc2c1,18.2
5,N#CCC(=O)Nc1ccccc1C(=O)O,4.05
6,CCOC(=O)c1sc(NC(=O)C2CC=CCC2C(=O)O)nc1C (stereo not drawn),13.7
7,CSc1nccc(N2CCN(c3ccc(F)cc3)CC2)n1,2.01
8,CCOc1ccccc1C(=O)N1CCC(C(=O)c2ccc(F)cc2)CC1,2.3
9,COc1ccc(NC(=O)c2ccco2)cc1S(=O)(=O)N1CCOCC1,9.71
10,CCC(=O)Nc1nnc(Sc2ccc(N(C)C)cc2)s1,9.84
11,O=C(CN1CCC(NC(=O)c2cccc(F)c2)CC1)NCc1ccccc1F,-3.17
12,O=C(COc1ncnc2ccccc12)N1CCN(c2ccccc2)CC1,-0.0215
13,COc1ccc(CCNC(=O)c2cc3cccc(OC)c3oc2=O)cc1OC,23.2
14,O=C(NC1CCCC1)C1CC(=O)N(c2ccc(F)c(Cl)c2)C1 (stereo not drawn),7.43
15,O=C(NCCCN1CCOCC1)c1cc(-c2ccccc2F)no1,19.7
16,O=C(COC(=O)CNC(=O)c1ccc(Br)o1)Nc1ccccc1OC(F)F,-16
17,COC(=O)C[C@H]1c2cc(F)ccc2S(=O)(=O)N1Cc1ccccc1,2.98
18,CCCCNC(=O)[C@@H]1CSC2c3ccccc3C(=O)N21 (stereo partly drawn),6.55
19,CC(=O)c1ccc(S(=O)(=O)N2CCN(C(=O)c3ccccc3Cc3ccccc3)CC2)cc1,3.46
